± gives the standard error. This sample is rich in variants without activity.
B1: glmS ribozyme (parent)
chain: AUAAAAGCGCCAGAACUACAGAAAUGUAGUUGACGAGGAGGAGGUUUAUCGAAUUUUCGGCGGAUGCCUCCAAA

What was measured:
Details in all cases: with glucosamine-6-phosphate
glucosamine-6-phosphate [1] = variants of: B1; experiment: self-cleavage kobs at 40 uM GlcN6P; higher = faster cleavage; RNA array
In short: (§1)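 Glucosamine-6-phosphate in HEPES/KCl/Mg(OAc)2 buffer, at 40 μM to 10 mM, was flowed over barcoded ribozyme variants transcribed in situ by E. coli RNA polymerase on sequenced MiSeq chips. Tracking was through a hybridised Cy3 probe at 37 °C. kobs, kcat and KM came from exponential decay fits and weighted Michaelis–Menten fits of normalised per-tile medians.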

glucosamine-6-phosphate [2] = variants of: B1; experiment: self-cleavage kobs at 640 uM GlcN6P; higher = faster cleavage; RNA array
In short: as §1

glucosamine-6-phosphate [3] = variants of: B1; experiment: self-cleavage kobs at 160 uM GlcN6P; higher = faster cleavage; RNA array
In short: as §1

glucosamine-6-phosphate [4] = variants of: B1; experiment: self-cleavage kobs at 10000 uM GlcN6P; higher = faster cleavage; RNA array
In short: as §1

glucosamine-6-phosphate [5] = variants of: B1; experiment: self-cleavage kobs at 2500 uM GlcN6P; higher = faster cleavage; RNA array
In short: as §1

Variant | self-cleavage kobs at 40 uM GlcN6P (glucosamine-6-phosphate [1]) | self-cleavage kobs at 640 uM GlcN6P (glucosamine-6-phosphate [2]) | self-cleavage kobs at 160 uM GlcN6P (glucosamine-6-phosphate [3]) | self-cleavage kobs at 10000 uM GlcN6P (glucosamine-6-phosphate [4]) | self-cleavage kobs at 2500 uM GlcN6P (glucosamine-6-phosphate [5])
C10A G29C | < 1e-05 s⁻¹ | < 1e-05 s⁻¹ | < 1e-05 s⁻¹ | < 1e-05 s⁻¹ | 
C10A G32C G41A | < 1e-05 s⁻¹ |  |  |  | 
C10A G32U G43A G63U U69A | < 1e-05 s⁻¹ |  |  | < 1e-05 s⁻¹ | 
C10A G35A G41A U55G A64U | < 1e-05 s⁻¹ |  |  |  | 
C10A G37A | < 1e-05 s⁻¹ | < 1e-05 s⁻¹ |  | < 1e-05 s⁻¹ | < 1e-05 s⁻¹
C10A G37C U47C G60C | < 1e-05 s⁻¹ |  |  |  | 
C10A G38A G41C C68A | < 1e-05 s⁻¹ |  |  |  | 
C10A G38C G60U C71U | < 1e-05 s⁻¹ |  |  |  | 
C10A G38U G44A C61G | < 1e-05 s⁻¹ |  |  |  | 
C10A G40U A48C U54A G62U | < 1e-05 s⁻¹ |  |  | < 1e-05 s⁻¹ | 
C10A G40U U54C | < 1e-05 s⁻¹ |  |  | < 1e-05 s⁻¹ | 
C10A G41U | < 1e-05 s⁻¹ | < 1e-05 s⁻¹ | < 1e-05 s⁻¹ | < 1e-05 s⁻¹ | < 1e-05 s⁻¹
C10A G43A G59U | < 1e-05 s⁻¹ |  | < 1e-05 s⁻¹ | < 1e-05 s⁻¹ | 
C10A G44C | < 1e-05 s⁻¹ | < 1e-05 s⁻¹ | < 1e-05 s⁻¹ |  | < 1e-05 s⁻¹
C10A G44U C50G U69C | < 1e-05 s⁻¹ |  |  | < 1e-05 s⁻¹ | 
C10A U30A C61U G66U | < 1e-05 s⁻¹ |  |  |  | 
C10A U30G U31G G40A G51U | < 1e-05 s⁻¹ |  |  | < 1e-05 s⁻¹ | 
C10A U31A U46G U56A C61U | < 1e-05 s⁻¹ |  |  | < 1e-05 s⁻¹ | 
C10A U46G U47A G59C | < 1e-05 s⁻¹ |  |  |  | 

Variant | self-cleavage kobs at 40 uM GlcN6P (glucosamine-6-phosphate [1]) | self-cleavage kobs at 640 uM GlcN6P (glucosamine-6-phosphate [2]) | self-cleavage kobs at 160 uM GlcN6P (glucosamine-6-phosphate [3]) | self-cleavage kobs at 10000 uM GlcN6P (glucosamine-6-phosphate [4]) | self-cleavage kobs at 2500 uM GlcN6P (glucosamine-6-phosphate [5])
C10A U47C | < 1e-05 s⁻¹ |  | < 1e-05 s⁻¹ | < 1e-05 s⁻¹ | 
C10A U55C U56C | < 1e-05 s⁻¹ |  |  | < 1e-05 s⁻¹ | 
C10G A12C G37C | < 1e-05 s⁻¹ |  |  |  | 
C10G A12U G63C | < 1e-05 s⁻¹ |  |  |  | 
C10G A14G A48U | < 1e-05 s⁻¹ |  |  |  | 
C10G A14U G29U | < 1e-05 s⁻¹ |  |  | < 1e-05 s⁻¹ | 
C10G A15C A36G G41U A48U | < 1e-05 s⁻¹ |  |  | < 1e-05 s⁻¹ | < 1e-05 s⁻¹
C10G A15G | < 1e-05 s⁻¹ |  | < 1e-05 s⁻¹ |  | 
C10G A39G A52C U55G C61U G63C | < 1e-05 s⁻¹ |  |  |  | 
C10G A39U A48G A52C C68A | < 1e-05 s⁻¹ |  |  |  | < 1e-05 s⁻¹
C10G A42U C67G | < 1e-05 s⁻¹ |  |  |  | 
C10G A52U G59C | < 1e-05 s⁻¹ | < 1e-05 s⁻¹ | < 1e-05 s⁻¹ |  | < 1e-05 s⁻¹
C10G A52U U55C A64C | < 1e-05 s⁻¹ | < 1e-05 s⁻¹ |  |  | 
C10G A53G | < 1e-05 s⁻¹ |  | < 1e-05 s⁻¹ |  | 
C10G C11U U49A G62U | < 1e-05 s⁻¹ | < 1e-05 s⁻¹ |  |  | 
C10G C16A | < 1e-05 s⁻¹ | < 1e-05 s⁻¹ |  | < 1e-05 s⁻¹ | < 1e-05 s⁻¹
C10G C16G G35C A39C | < 1e-05 s⁻¹ |  |  | < 1e-05 s⁻¹ | 
C10G C34A | < 1e-05 s⁻¹ | < 1e-05 s⁻¹ | < 1e-05 s⁻¹ | < 1e-05 s⁻¹ | < 1e-05 s⁻¹
C10G C34U | < 1e-05 s⁻¹ | < 1e-05 s⁻¹ | < 1e-05 s⁻¹ | < 1e-05 s⁻¹ | < 1e-05 s⁻¹

Variant | self-cleavage kobs at 40 uM GlcN6P (glucosamine-6-phosphate [1]) | self-cleavage kobs at 640 uM GlcN6P (glucosamine-6-phosphate [2]) | self-cleavage kobs at 160 uM GlcN6P (glucosamine-6-phosphate [3]) | self-cleavage kobs at 10000 uM GlcN6P (glucosamine-6-phosphate [4]) | self-cleavage kobs at 2500 uM GlcN6P (glucosamine-6-phosphate [5])
C10G C50G G63A C71U | 6.86e-05 ± 1.9e-05 s⁻¹ |  |  |  | 
C10G C58G | < 1e-05 s⁻¹ |  |  | < 1e-05 s⁻¹ | 
C10G C61U C71A | < 1e-05 s⁻¹ |  |  |  | 
C10G C70U | < 1e-05 s⁻¹ |  |  |  | 
C10G C71U | < 1e-05 s⁻¹ | < 1e-05 s⁻¹ | < 1e-05 s⁻¹ | < 1e-05 s⁻¹ | 
C10G G13U A14U | < 1e-05 s⁻¹ |  |  |  | 
C10G G13U C34A G35U G41U U49A | < 1e-05 s⁻¹ |  |  |  | 
C10G G29U | < 1e-05 s⁻¹ | < 1e-05 s⁻¹ |  | < 1e-05 s⁻¹ | 
C10G G29U C50A G59A G63C | < 1e-05 s⁻¹ |  |  |  | 
C10G G32A | < 1e-05 s⁻¹ |  |  |  | 
C10G G32C U57A | < 1e-05 s⁻¹ |  |  |  | 
C10G G32U | < 1e-05 s⁻¹ |  |  |  | 
C10G G41U A48U G62A U69C | < 1e-05 s⁻¹ | < 1e-05 s⁻¹ | < 1e-05 s⁻¹ | < 1e-05 s⁻¹ | < 1e-05 s⁻¹
C10G G41U C61G G66U | < 1e-05 s⁻¹ |  | < 1e-05 s⁻¹ |  | 
C10G G44U | < 1e-05 s⁻¹ | < 1e-05 s⁻¹ | < 1e-05 s⁻¹ | < 1e-05 s⁻¹ | < 1e-05 s⁻¹
C10G G62A | < 1e-05 s⁻¹ | < 1e-05 s⁻¹ | < 1e-05 s⁻¹ | < 1e-05 s⁻¹ | 
C10G G63U | < 1e-05 s⁻¹ | < 1e-05 s⁻¹ | < 1e-05 s⁻¹ |  | < 1e-05 s⁻¹
C10G G66A | < 1e-05 s⁻¹ |  |  |  | 
C10G U30A | < 1e-05 s⁻¹ | < 1e-05 s⁻¹ | < 1e-05 s⁻¹ |  | 
